# According to publication PMC4336329 (PLoS ONE, 2015):
# The campaign covered roughly 310,000 compounds. About 2,200 (0.71%) showed an effect of 50% or more. Effects have a minus sign here. The list shows a part of the results.
# Target: human ether-à-go-go-related gene (hERG) potassium channel (human, UniProt Q12809)
# Experiment: primary screen, population patch clamp on CHO cells stably expressing hERG
# Chain of human ether-à-go-go-related gene (hERG) potassium channel (Q12809 whole entry, looked up): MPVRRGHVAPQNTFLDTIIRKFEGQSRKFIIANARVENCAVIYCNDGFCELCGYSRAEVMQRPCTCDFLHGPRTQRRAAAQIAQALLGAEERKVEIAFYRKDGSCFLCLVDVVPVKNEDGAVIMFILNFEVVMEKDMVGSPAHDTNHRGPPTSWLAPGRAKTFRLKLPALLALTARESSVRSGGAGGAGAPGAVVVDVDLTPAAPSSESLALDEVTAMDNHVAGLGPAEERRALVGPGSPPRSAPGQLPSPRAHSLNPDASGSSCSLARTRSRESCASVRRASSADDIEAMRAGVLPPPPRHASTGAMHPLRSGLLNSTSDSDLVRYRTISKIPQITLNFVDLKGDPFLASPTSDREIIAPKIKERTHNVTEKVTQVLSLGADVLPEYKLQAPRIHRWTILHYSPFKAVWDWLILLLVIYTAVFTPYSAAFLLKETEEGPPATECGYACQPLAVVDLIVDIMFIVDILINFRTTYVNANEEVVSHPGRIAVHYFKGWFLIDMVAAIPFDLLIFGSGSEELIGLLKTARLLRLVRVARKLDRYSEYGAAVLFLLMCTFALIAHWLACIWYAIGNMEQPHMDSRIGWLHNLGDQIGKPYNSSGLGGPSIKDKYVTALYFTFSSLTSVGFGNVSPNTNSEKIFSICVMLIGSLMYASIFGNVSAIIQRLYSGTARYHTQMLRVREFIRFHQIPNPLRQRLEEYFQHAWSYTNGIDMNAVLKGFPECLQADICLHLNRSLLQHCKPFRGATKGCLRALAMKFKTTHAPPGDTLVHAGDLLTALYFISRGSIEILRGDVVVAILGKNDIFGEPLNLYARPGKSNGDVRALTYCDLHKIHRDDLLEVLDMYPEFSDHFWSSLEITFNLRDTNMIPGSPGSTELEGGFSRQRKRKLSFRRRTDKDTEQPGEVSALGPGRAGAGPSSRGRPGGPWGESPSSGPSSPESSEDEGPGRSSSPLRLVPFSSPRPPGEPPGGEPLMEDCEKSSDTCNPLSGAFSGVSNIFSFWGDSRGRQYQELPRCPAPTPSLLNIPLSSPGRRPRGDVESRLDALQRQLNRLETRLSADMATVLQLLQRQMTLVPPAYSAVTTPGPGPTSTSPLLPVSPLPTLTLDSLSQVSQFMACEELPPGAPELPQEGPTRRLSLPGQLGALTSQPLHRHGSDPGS
row,SMILES,"hERG current change (%, negative = inhibition) at 1uM [%]"
1,CCCN(CC1CC1)c1nc(N)c2c(N)nc(OC)cc2c1C#N,0.376
2,O=C(O)c1ccc(N=Nc2c(O)ccc3ncccc23)cc1,13.9
3,CC1Cc2ccccc2N1C(=O)c1cnc2ccccn2c1=O (stereo not shown),-6.13
4,COc1cccc(C2C(C#N)=C(N)N(N(C)C)C3=C2C(=O)CCC3)c1 (stereo not shown),7.95
5,Cc1ccccc1OCC(=O)Nc1ccccc1C(=O)N1CCCCC1,-4.24
6,CN1CCN(CC#CC(C)(O)C2CC3C=CC2C3)CC1.Cl (stereo not shown),10.8
7,O=C1NC(c2ccccc2Cl)=N/C1=C/c1ccco1,1.65
8,CCOc1ccc(N(CC(=O)Nc2cccc(F)c2)S(=O)(=O)c2c(C)noc2C)cc1,7.37
9,COCCN(C/C=C/c1ccccc1)C/C=C/c1ccccc1,-41.8
10,Cc1ccc2sc(NC(=O)c3cccc(N4C(=O)CCC4=O)c3)nc2c1C,12.8
11,NS(=O)(=O)c1ccc(NNC(=O)c2cccs2)cc1,11.2
12,O=c1[nH]nc(CNc2ccc(Cl)cc2Cl)c2ccccc12,11.9
13,Cc1cc(C)c(S(=O)(=O)Nc2ccc(C(N)=O)cc2)c(C)c1,8.12
14,CN(C)c1ccc(NC(=O)c2ccncc2)c2ccccc12,-3.42
15,Cc1nnc(SCC2CCCO2)n1-c1ccccc1 (stereo not shown),13.7
16,COc1ccnc(CN(C)C(=O)C2CCC(=O)N(CCN(C)C)C2)c1 (stereo not shown),18
17,COc1ccc(Nc2nnc(SCC(=O)NC(=O)Nc3ccc4c(c3)OCCO4)s2)cc1,11.8
18,COc1ccc(N2C(=O)/C(=C/c3ccc([N+](=O)[O-])cc3)N=C2C)c(OC)c1,15.1
19,C[C@H]1CCC[C@@H](O)CCC/C=C/c2cc(O)cc(O)c2C(=O)O1,12.6
20,COC(=O)[C@@H]1C[C@@H](c2ccccc2)[C@H](C)C1(C)C,9.31
21,Cc1ccc(S(=O)(=O)N2c3cc(C)ccc3OCC2C(C)(C)C)cc1 (stereo not shown),10.8
22,O=C(O)CCN1C(=O)c2ccc(NC(=O)CSCc3ccccc3)cc2C1=O,0.421
23,CCc1ccccc1NC(=O)CN(C)C(=O)CSc1nn(-c2ccccc2)c(=S)s1,8.56

row,SMILES,"hERG current change (%, negative = inhibition) at 1uM [%]"
1,COc1cc(C(=O)N2CCN(C(=O)CC(C)C)CC2)cc(OC)c1OC,8.32
2,CCN(CC)S(=O)(=O)c1ccc2c(c1)nc(SC(C)C(=O)NCC1CCCO1)n2CC (stereo not shown),0.83
3,COC1=CCC2([N+](=O)[O-])CN(C)CC1([N+](=O)[O-])C2 (stereo not shown),5.53
4,O.O=C(NC12CC3CC(CC(C3)C1)C2)c1cncc(O)c1,14.8
5,C/C(=C\C(=O)O)C12CC3CC(CC(C3)C1)C2,12.1
6,COc1ccc(C(=O)Nc2cc(C)c(NC(=O)c3ccccc3OC)cn2)cc1,11
7,S=C(Nc1ccc2[nH]ccc2c1)NC1CCCCC1,15.2
8,Cc1cc(C(=O)OCC(=O)N2c3ccccc3CC2C)c(C)o1 (stereo not shown),6.25
9,CCOC(=O)C1(Cc2cccc(Cl)c2)CCCN(C(=O)c2cccc(C)n2)C1 (stereo not shown),4.57
10,O=C(NCc1cccnc1)c1ccc2c(=O)n(CCCN3CCCC3=O)c(=S)[nH]c2c1,6.64
11,Cc1ccc(S(=O)(=O)N2C(=O)CCC2C(=O)Nc2ccc3c(c2)OCCO3)cc1 (stereo not shown),17.4
12,N#Cc1ccc(-c2ccccc2)nc1SCCN1CCOCC1,2.81
13,Cc1ccc(NC(=O)Cc2ccc(-n3cccc3)cc2)c(C)c1,5.51
14,O=C(CN1C(=O)NC2(CCCCCC2)C1=O)c1cccs1,8.17
15,CCOc1ccccc1OCCCC(=O)NC1CCCc2ccccc21 (stereo not shown),5.8
16,CC(C)(CCO)Nc1ncnc2onc(-c3ccc(F)cc3)c12,7.88
17,COc1ccc2nc(C)cc(NCc3ccc(F)cc3)c2c1,-26.2
18,COc1cccc(CNCCc2c[nH]c3ccccc23)c1,5
19,COc1cc(C#N)ccc1OCC(=O)NCc1cccs1,14
20,O=C1c2ccccc2S(=O)(=O)c2cc(C(=O)N3CCN(c4c(Cl)cncc4Cl)CC3)ccc21,8.05
21,CC(C)(C)c1ccc(C(=O)Nc2ncn[nH]2)cc1,-0.575
22,O=C(O)c1ccc2c(c1)ncn2C1CCCCC1,11.2
23,Cc1nn(C)cc1S(=O)(=O)N1CCN(Cc2ccccc2Cl)CC1,2.52

row,SMILES,"hERG current change (%, negative = inhibition) at 1uM [%]"
1,C/C(=N\NC1=NCCN1)c1ccc(N)c([N+](=O)[O-])c1,8
2,CCOC(=O)CNc1ncnc2nc[nH]c12,12
3,O=C(NCCCNCc1ccccc1)c1ccccn1.O=C(O)/C=C/C(=O)O,4.26
4,O=C(O)Cc1ccc(NS(=O)(=O)c2c(Cl)cccc2Cl)cc1,0.167
5,CCN(CC)c1nc(-c2ccc(C(=O)NN)cc2)nc(-c2ccc(C(=O)NN)cc2)n1,14.5
6,COc1ccccc1CN1CC(C(=O)N(C)Cc2[nH]c3ccccc3c2C)CCC1=O (stereo not shown),4.59
7,CCC1=Nc2cc(C(=O)O)ccc2Sc2ccc(Cl)cc21,17.5
8,CC(=O)NS(=O)(=O)c1ccc(NC(=O)C2c3ccccc3Oc3ccccc32)cc1,10.4
9,Cc1cccc(N2C(S)=C(C#N)C(=O)NC2c2cccs2)c1 (stereo not shown),8.42
10,CCOC(=O)C1(Cc2cccc(Cl)c2)CCCN(C(=O)c2cc(C)on2)C1 (stereo not shown),22.3
11,CN(C(=O)c1cccc(N2C(=O)C3C4C=CC(C4)C3C2=O)c1)C1CCCCC1 (stereo not shown),5.1
12,CC(=O)c1ccc(NS(=O)(=O)c2ccc3c(c2)N(C(C)=O)CCO3)cc1,23.4
13,O=S(=O)(Cc1ccccc1)Nc1ccc(F)cc1,15.1
14,O=P1(Oc2ccccc2)OCCCS1 (stereo not shown),12.2
15,CCOC(=O)NC1(C(F)(F)F)C(=O)N(Cc2ccccc2)C2=C1C(=O)CC(C)(C)C2 (stereo not shown),23.8
16,O=C(O)c1ccccc1C(=O)NCCCn1ccnc1,14.5
17,O=C(CCNC(=O)c1ccc([N+](=O)[O-])cc1)Nc1nccs1,13.9
18,CCCCOc1ccc(C(=O)NCC(=O)N(C)Cc2nc3ccccc3c(=O)[nH]2)cc1,1.71
19,N/C(Cc1nc(-c2ccc(F)cc2)cs1)=N\O,10.2
20,O=S(=O)(NOCc1ccc(Cl)cc1)c1ccc(Cl)cc1,18.6
21,O=C(CCC(=O)OCc1ccc(Br)cc1)Nc1ccccc1,7
22,CC1CCCN(C2(O)C(=O)Nc3ccc([N+](=O)[O-])cc32)C1 (stereo not shown),3.72
23,O=C(COC(=O)C1COc2ccccc2O1)Nc1cccc(F)c1 (stereo not shown),0.464

row,SMILES,"hERG current change (%, negative = inhibition) at 1uM [%]"
1,COc1ccc(NC(=O)c2cc(-c3cc(OC)c(OC)c(OC)c3)nc3ccccc23)c(OC)c1,11.3
2,COc1ccccc1CNC(=O)C1CCC(CNS(=O)(=O)c2ccccc2)CC1 (stereo not shown),14.5
3,Cc1c(NC(=O)c2ccc(Cl)nc2)cccc1-c1nc2cccnc2s1,-11.6
4,COCCNC(=O)c1c(NC(=O)c2nc(SC)ncc2Cl)sc2c1CCCC2,19.7
5,COc1ccc(-c2cc(C(F)(F)F)nc(NCc3cccs3)n2)cc1,5.4
6,COc1ccc(C(=O)NCC(=O)OCC(=O)NC2CCCC2)cc1,9.44
7,O=C(O)CCC(=O)Nc1ccc(N2CCCCC2)c(C(=O)O)c1,12.1
8,CCOc1ccc(-n2cc(-c3ccccc3)c3c(N4CCOCC4)ncnc32)cc1,17.7
9,CC(=O)Nc1ccc(C(=O)OCC(=O)NCc2ccc(Cl)cc2)cc1,6.99
10,CCCNC(=O)c1ccc(N2CCC3(CC2)CC(c2ccccc2)=NO3)c(NC(=O)c2cccc(C)c2)c1,2.09
11,Cc1cccc(NC(=O)COC(=O)CSc2ccccc2)c1C,9.01
12,CCOC(=O)c1c(NC(=O)c2ccc(S(=O)(=O)N3CCOCC3)cc2)sc2c1CCN(C)C2,-3.23
13,CCCNc1nc2c(c(=O)n(C)c(=O)n2C)n1Cc1cccc(C)c1,1.2
14,COc1ccc(NC(=O)CN(C)CC(=O)NC2CCC(C)CC2)cc1 (stereo not shown),12
15,COC(=O)N/N=C/c1cc(Cl)cc(Cl)c1OCc1ccccc1,3.6
16,Fc1ccccc1-n1cn[nH]c1=S,20.4
17,Cc1ccc(-n2cc(CNCCc3cscn3)c(-c3ccc(F)cc3)n2)cc1,20.3
18,Cc1ccc(CNC(=O)COC(=O)CSc2cc(C)c(Br)cc2C)cc1,5
19,CC(=O)Nc1ccc(S(=O)(=O)NCCCc2ccccc2)cc1,14.1
20,Cc1cccc(/C=N/NC(=O)NC23CC4CC(CC(C4)C2)C3)n1,12.5
21,COc1ccc(CNC(=O)c2sccc2-c2ccccc2)cc1OC,11
22,CC(C)N(Cc1c(O)ccc2c(=O)c(-c3ccc(Cl)cc3)coc12)C(C)C,8.88
